We go through one molecule from PMC9270183 (The Journal of Experimental Medicine, 2022).

For the experiment, the target named is SARS-CoV-2 Wuhan-Hu-1 RBD (SARS-CoV-2 Wuhan-Hu-1). In words: BLI. The note with it: both partners purified.

B1: V029 (antibody, V domains shown)
VH: QVQLVESGGGVVQPGRSLRLSCAASGFTFNSYGMHWVRQAPGKGLEWVAVISYDGTNKYYADSVKGRFTISRDNSKNTLYLQMNSLRAEDTAVYYCAKDSEDCSSTTCYQDYWGQGTLVTVSS
VL: [about 100 residues cut from this listing]FGPGTKVDIK
notes: IgG; donor BRA14; source: recombinant monoclonal IgG, produced and purified as previously described
The term Kd denotes the equilibrium constant for the complex coming apart. Low readings indicate a tighter complex, high ones a looser complex. B1 returned a Kd of 12.1 nM.
